# Article PMC4336329 (PLoS ONE, 2015)
# About 14,000 (4.5%) of roughly 310,000 compounds showed an effect of 50% or more. Effects have a minus sign here. Some of the results follow.
# Biological target: human ether-à-go-go-related gene (hERG) potassium channel (human, UniProt Q12809)
# Test: primary screen, population patch clamp on CHO cells stably expressing hERG
# 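Further: peak tail current of the secondary pulse compared with the same well before compound.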
# Sequence of human ether-à-go-go-related gene (hERG) potassium channel (Q12809 whole entry, looked up): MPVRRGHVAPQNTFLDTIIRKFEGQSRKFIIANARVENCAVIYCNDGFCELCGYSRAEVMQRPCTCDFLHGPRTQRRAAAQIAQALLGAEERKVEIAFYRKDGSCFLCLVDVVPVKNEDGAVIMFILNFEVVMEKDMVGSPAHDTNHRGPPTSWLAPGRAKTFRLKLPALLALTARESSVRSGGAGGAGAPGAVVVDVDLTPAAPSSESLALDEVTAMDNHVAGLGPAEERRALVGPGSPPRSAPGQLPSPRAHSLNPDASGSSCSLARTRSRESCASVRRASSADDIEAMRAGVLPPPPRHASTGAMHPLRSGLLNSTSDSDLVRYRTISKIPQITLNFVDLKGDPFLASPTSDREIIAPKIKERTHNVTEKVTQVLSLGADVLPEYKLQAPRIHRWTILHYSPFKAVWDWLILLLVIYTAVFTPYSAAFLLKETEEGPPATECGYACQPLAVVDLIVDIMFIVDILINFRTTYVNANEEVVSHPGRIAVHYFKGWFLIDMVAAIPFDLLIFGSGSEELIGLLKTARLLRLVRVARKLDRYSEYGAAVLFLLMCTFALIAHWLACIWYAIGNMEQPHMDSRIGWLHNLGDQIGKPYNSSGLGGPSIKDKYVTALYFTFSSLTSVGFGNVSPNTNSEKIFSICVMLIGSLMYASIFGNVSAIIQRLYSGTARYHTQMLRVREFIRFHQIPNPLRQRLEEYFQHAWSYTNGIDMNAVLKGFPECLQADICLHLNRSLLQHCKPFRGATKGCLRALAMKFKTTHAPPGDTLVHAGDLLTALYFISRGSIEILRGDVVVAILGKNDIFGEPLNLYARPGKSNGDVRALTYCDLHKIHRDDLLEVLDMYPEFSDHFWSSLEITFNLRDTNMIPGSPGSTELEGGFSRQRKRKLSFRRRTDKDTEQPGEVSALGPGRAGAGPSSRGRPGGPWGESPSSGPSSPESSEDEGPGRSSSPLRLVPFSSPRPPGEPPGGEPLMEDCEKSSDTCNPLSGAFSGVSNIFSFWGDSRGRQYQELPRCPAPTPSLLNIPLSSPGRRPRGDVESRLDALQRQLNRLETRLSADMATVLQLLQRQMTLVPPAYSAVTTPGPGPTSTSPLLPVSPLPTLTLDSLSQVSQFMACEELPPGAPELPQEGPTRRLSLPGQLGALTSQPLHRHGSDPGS
row,SMILES,"hERG current change (%, negative = inhibition) at 10uM [%]"
1,O=C(CNC1CCCCC1)Nc1cc(S(=O)(=O)N2CCOCC2)ccc1Cl,-2.18
2,O=C(Nc1ccc(F)cc1)c1sccc1SCc1cccc(C(F)(F)F)c1,-5.32
3,Cc1cc(C)c2cc(CN(CCN3CCCC3)C(=O)Nc3ccc(F)cc3)c(=O)[nH]c2c1,-74.4
4,c1ccc(C2=Nn3c(nnc3-c3ccncc3)SC2)cc1,-3.67
5,COc1ccc2c(c1)-c1ccccc1S(=O)(=O)N2C(C)=O,-5.35
6,CC(=O)c1cc(Cl)ccc1OCc1cccc(S(=O)(=O)N2CCOCC2)c1,-68.9
7,Cc1cc(Nc2ccccc2)n(C(=O)c2ccc(Cl)cc2)n1,17.4
8,CCOc1ccc(CSCCNC(=S)Nc2ccc(OC)cc2)cc1,0.191
9,COc1ccc(Nc2ccc(N3C(=O)CCCC3=O)cc2[N+](=O)[O-])c(OC)c1,-1.83
10,CCOC(=O)C1CCN(C(=O)CCn2c(=O)c3cccn3c3cccnc32)CC1,-33.2
11,CN(C)CCSc1nnc2sc3ccccc3n12,-12.1
12,Cc1cc(C)nc(SCNC(=O)c2ccccc2)n1,7.08
13,CCCNC(=O)COc1coc(CN2CCN(C(=O)c3ccco3)CC2)cc1=O,3.56
14,O=C(c1cc(-c2cccc(Br)c2)nc2ccccc12)N1CCCC1,-18.1
15,N#Cc1cnn2c(N)c(-c3ccc(Cl)cc3)cnc12,16.4
16,CN(CC(=O)Nc1ccc(F)cc1)C(=O)c1cc(-c2ccco2)nc2ccccc12,-32.5
17,O=C(CCN1CCN(S(=O)(=O)c2ccc(Cl)cc2)CC1)Nc1ccccc1F,-6.18
18,O=C(CN1CCN(c2ccccn2)CC1)Nc1ccc(Cl)c(C(F)(F)F)c1,-7.97
19,Cc1ccc(CNC(=O)c2ccc(N3CCC4(CC3)CC(c3cccc(Br)c3)=NO4)c([N+](=O)[O-])c2)cc1,24.3
20,CS(=O)(=O)c1cccc(C(=O)OCC(=O)Nc2ccc3c(c2)OCO3)c1,-1.71
21,CC1CCN(CCCNC(=O)C2CCN(S(=O)(=O)N3CCC4(CC3)OCCO4)CC2)CC1,16.6

row,SMILES,"hERG current change (%, negative = inhibition) at 10uM [%]"
1,OC(COCC(F)(F)C(F)(F)C(F)(F)C(F)F)Cn1c2ccccc2c2ccccc21 (centres unmarked),-14.4
2,CN(C)C(=O)C(=O)c1c(-c2ccccc2)cc2ccccn12,4.87
3,Cc1cccc2cc3c(N)c(C#N)sc3nc12,21.5
4,O=C(O)CCC(=O)NNC(=O)c1cccc(Cl)c1,8.99
5,CCC1=C(OC(=O)N(CC)CC)N2C(=O)OC(=NCc3ccccc3)[C@]2(C)[C@H]2C1=CC[C@H]1C(=O)N(c3ccccc3)C(=O)[C@H]12,-34.3
6,COc1ccc(-c2cn3cccnc3n2)cc1NC(=O)CC(C)C,6.53
7,C=CCn1c(SCC(=O)Nc2ncc(Cc3ccc(C)c(Cl)c3)s2)nnc1-c1ccncc1,-1.27
8,CCN(C(=O)COC(=O)Cn1c(C)csc1=O)c1c(N)n(Cc2ccccc2)c(=O)[nH]c1=O,-2.69
9,COc1ccc(N(CC(=O)N2CCN(C)CC2)S(=O)(=O)c2cc(C)ccc2OC)cc1Cl,-60.3
10,Cc1ccc(NC(=S)NCc2ccccc2)cc1C,11
11,CCCCn1c(SCC(=O)Nc2cc(C(F)(F)F)ccc2Cl)nnc1C(CC)N(C)C (centres unmarked),-19.1
12,COc1ccc(S(=O)(=O)NCCC(=O)Nc2ccc(C)cc2)cc1,0.527
13,O=S1(=O)C[C@@H](O)[C@@H](Nc2ccc(Cl)cc2)C1,7.07
14,CC(C)(C)N(Cc1ccccc1)C(=O)COC(=O)/C=C/c1ccc2c(c1)OCO2,-7.85
15,CCC(C)C(=O)N[C@@H](c1ccccc1)[C@@H](O)C(=O)O[C@H]1C[C@@]2(O)[C@@H](OC(=O)c3ccccc3)C3[C@](C)(C(=O)[C@H](OC(C)=O)C(=C1C)C2(C)C)[C@@H](O)C[C@H]1OC[C@@]31OC(C)=O (some centres unmarked),1.3
16,C=CCc1ccc(OC(=O)c2ccccc2)c(OC)c1,5.73
17,O=C(c1ccco1)N1CCN(c2cc(C(F)(F)F)nc3ncnn23)CC1,-16.7
18,COc1ccc(C(CNC(=O)c2ccc(-c3cccc(C(F)(F)F)c3)o2)N2CCOCC2)cc1 (centres unmarked),-6.09
19,CC1(C(=O)NCCc2c[nH]c3ccccc23)C=CC2(CCCCC2)N1C(=O)c1ccccc1 (centres unmarked),-9.82
20,COc1ccc(NC(=O)c2ccc(S(=O)(=O)N3CCCCC3)cc2)c(OC)c1,-2.09
21,N#CC(c1ccc(Cl)nn1)c1ccccc1Cl (centres unmarked),-1.26

row,SMILES,"hERG current change (%, negative = inhibition) at 10uM [%]"
1,COC(=O)C1(C)NC(c2ccccc2C)C2C(=O)N(c3ccc(F)cc3)C(=O)C21 (centres unmarked),1.12
2,COc1ccc(S(=O)(=O)N2CCC(C(=O)Nc3ccccc3N3CCCC3)CC2)cc1OC,-23.7
3,O=C(COc1ccccc1)Nc1ccccc1Oc1ccccc1,-8.35
4,CC(=O)Nc1ccc(C(=O)OCC(=O)N2CCC(Cc3ccccc3)CC2)cc1,0.85
5,Cc1ccc(COc2cccc(/C=N/NC(=O)c3nnn(-c4nonc4N)c3C)c2)cc1,23.7
6,Cc1cc(C)c(S(=O)(=O)N(C)CC(N)=O)c(C)c1,-4.51
7,Cc1ccccc1NC(=O)c1cccc(S(=O)(=O)Nc2cccc(C(=O)O)c2)c1,21.2
8,O=C(NCCc1c[nH]c2ccccc12)C1CCN(S(=O)(=O)c2ccccc2F)CC1,-2.01
9,Cc1cc(-c2n[nH]c(=S)n2/N=C/c2ccc(C)s2)n[nH]1,13.4
10,O=[N+]([O-])c1ccc(/C=N/n2c(-c3ccccc3)n[nH]c2=S)cc1,11.3
11,CN(C)S(=O)(=O)c1cccc(-c2nn(-c3ccccc3)cc2/C=C2\SC(=S)N(CC(=O)O)C2=O)c1,7.46
12,Cc1ccnc(NC(=O)c2cccc(NC(=O)COc3ccccc3)c2)c1,-38.3
13,Cc1cc(C)c(S(=O)(=O)NCc2cccnc2)cc1C,13.4
14,CC(=O)Nc1ccc(Nc2cc(N(C)C)c3nonc3c2[N+](=O)[O-])cc1,10.6
15,Cc1nc2ccccn2c1C(=O)Nc1ccc(Cl)cc1,1.65
16,COc1cc(C2C(C#N)=C(N)Oc3n[nH]c(C)c32)cc2c1OCO2 (centres unmarked),-3.43
17,O=C(CN1CC(c2ccccc2)CC1=O)Nc1ccccc1 (centres unmarked),5.88
18,O=C(CSc1nnc(-c2ccccc2O)n1-c1ccccc1)Nc1cccc(C(=O)O)c1,12.7
19,CCn1ncc(C2=NOC(C(=O)N3CCN(c4ccccc4)CC3)C2)c1C (centres unmarked),-16.4
20,CS(=O)(=O)Cc1ccc(C(=O)NC(c2ccccc2)c2ccccc2)cc1,13.2
21,Cc1cc(C)cc(NC(=O)CS(=O)(=O)c2cccc3nsnc23)c1,3.39

row,SMILES,"hERG current change (%, negative = inhibition) at 10uM [%]"
1,CCCCCOc1ccc(CSc2ncn[nH]2)cc1,-17.4
2,Cl.c1ccc(CNc2c3c(nc4ccccc24)CCC3)cc1,-75.3
3,Cc1ccc(OC(=O)c2ccncc2)c(C)c1,7.55
4,COc1ccc(C(=O)NNC(=S)NC(=O)c2ccc(Br)o2)cc1OC,24.8
5,CC(C)CC1NC(=O)N(CC(=O)N2c3ccccc3NC(=O)C2(C)C)C1=O (centres unmarked),1.31
6,CC(=O)N[C@@H](Cc1c[nH]c2ccccc12)C(=O)NC1CC1,21.1
7,O=C(CCNC(=O)C1CCN(S(=O)(=O)c2ccc(F)cc2)CC1)NCCc1cccc(F)c1,11.8
8,COc1cccc(NC(=O)Cn2c(=O)n(C)c(=O)c3sc4c(c32)COC(C)(C)C4)c1,6.82
9,CCCCNC(=O)c1cc2c(=O)n3cccc(C)c3nc2n(Cc2ccccc2)c1=N,-77.6
10,C=CCn1c(C)cc(C(=O)Cn2ncc(Cl)c(Cl)c2=O)c1C,-16.6
11,COc1ccc(-c2csc(Nc3cccc(C)n3)n2)cc1C,5.87
12,O=C(C1CCCO1)N1CCN(C(=S)Nc2ccc(Br)cc2)CC1 (centres unmarked),-13.3
13,COc1cccc(CN(C(=O)COc2ccc(Cl)cc2)C2CCS(=O)(=O)C2)c1 (centres unmarked),-45.5
14,O=C(CSc1nc2ccccc2o1)Nc1nncs1,3.83
15,CCC(=O)N(c1ccc(F)cc1)C1C=CS(=O)(=O)C1 (centres unmarked),7.02
16,CC1(C(=O)NCc2ccc(Cl)c(Cl)c2)Oc2ccccc2NC1=O (centres unmarked),-1.97
17,Cc1ccc(-n2ncc3c(=O)n(Cc4ccccn4)cnc32)cc1C,-3.05
18,N#CC1(NC(=O)CSc2nnc(Cc3ccccc3)o2)CCCCC1,1.11
19,COc1ccc(NC(=S)NCCCc2ccccc2)cc1,-29.7
20,COc1ccc(-c2c[n+]3c4n2CCCCC4=C(c2ccc(Br)cc2)C3)cc1.[Br-],-75.1
